Data on two molecules can be found in publication PMC6777367.

Protein sequences, listed by entry. Tags and fused reporters are not part of them. Lines headed by an entry give the natural chain unless they say otherwise; changes in a name come on top.
UniProt Q8NFJ9: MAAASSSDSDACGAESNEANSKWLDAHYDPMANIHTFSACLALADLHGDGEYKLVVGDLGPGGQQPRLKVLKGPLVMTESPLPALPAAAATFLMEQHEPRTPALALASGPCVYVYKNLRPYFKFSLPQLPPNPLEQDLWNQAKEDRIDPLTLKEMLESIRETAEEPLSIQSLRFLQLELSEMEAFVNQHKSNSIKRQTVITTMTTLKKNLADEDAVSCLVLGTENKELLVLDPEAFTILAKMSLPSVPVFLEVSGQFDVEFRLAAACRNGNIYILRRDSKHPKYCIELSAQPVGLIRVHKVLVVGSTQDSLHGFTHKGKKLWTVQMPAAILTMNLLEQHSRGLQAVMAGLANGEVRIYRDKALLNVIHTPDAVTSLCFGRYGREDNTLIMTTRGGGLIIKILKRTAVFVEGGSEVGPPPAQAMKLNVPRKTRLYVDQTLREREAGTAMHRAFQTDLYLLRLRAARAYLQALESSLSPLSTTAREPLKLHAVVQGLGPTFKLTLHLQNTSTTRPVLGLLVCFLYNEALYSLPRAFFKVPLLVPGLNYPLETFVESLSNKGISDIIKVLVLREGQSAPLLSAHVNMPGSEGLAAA

Where two headings read alike, the source gives them in different places. No constants are given. Whether binding was seen depends on the method and setting. Binding seen in cells or lysates may run through a third protein. Some binding calls cover weakened binding; strength is not graded here. For some assays here: Where a sequence is shown, tags or fusion partners need not be part of it.

Common to all, as to test: co-IP; visible immunoprecipitation (VIP) assay: lysates of co-transfected HEK293T cells (HMDEKN buffer: 10 mM HEPES pH 7.4, 5 mM MgSO4, 1 mM DTT, 0.5 mM EDTA, 25 mM KCl, 0.05% NP-40) precipitated by the EGFP fusion with GST-tagged anti-GFP nanobody on glutathione-Sepharose 4B beads; red fluorescence on the beads seen by microscopy
One experiment concerns the target T1, EGFP-IFT52 (UniProt Q9Y366).
T1 sequence: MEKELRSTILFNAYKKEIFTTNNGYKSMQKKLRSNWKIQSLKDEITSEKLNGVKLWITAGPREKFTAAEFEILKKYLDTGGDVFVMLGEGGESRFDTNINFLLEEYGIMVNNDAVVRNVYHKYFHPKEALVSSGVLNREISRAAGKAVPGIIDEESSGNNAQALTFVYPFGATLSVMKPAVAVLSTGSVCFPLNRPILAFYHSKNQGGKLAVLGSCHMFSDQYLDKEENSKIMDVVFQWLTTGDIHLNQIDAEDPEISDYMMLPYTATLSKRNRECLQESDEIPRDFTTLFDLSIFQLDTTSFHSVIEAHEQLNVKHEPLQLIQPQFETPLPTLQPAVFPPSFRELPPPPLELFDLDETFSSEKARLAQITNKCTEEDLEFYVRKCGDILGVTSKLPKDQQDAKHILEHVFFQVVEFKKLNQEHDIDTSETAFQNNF

A further experiment concerns the target T2, EGFP-IFT57 (UniProt Q9NWB7).
T2 sequence: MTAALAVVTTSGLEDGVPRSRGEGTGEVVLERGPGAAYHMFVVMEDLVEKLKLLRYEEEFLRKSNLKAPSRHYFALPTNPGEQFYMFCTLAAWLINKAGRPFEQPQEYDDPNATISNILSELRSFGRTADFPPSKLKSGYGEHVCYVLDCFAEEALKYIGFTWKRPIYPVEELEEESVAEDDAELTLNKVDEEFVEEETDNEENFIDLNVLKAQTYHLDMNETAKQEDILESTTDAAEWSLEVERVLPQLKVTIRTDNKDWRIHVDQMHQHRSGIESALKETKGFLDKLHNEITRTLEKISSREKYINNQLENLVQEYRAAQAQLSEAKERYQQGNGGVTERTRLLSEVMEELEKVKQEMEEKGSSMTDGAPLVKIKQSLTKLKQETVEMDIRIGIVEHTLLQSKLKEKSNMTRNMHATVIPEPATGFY

A further experiment concerns the target T3, EGFP-IFT88 (UniProt Q13099).
T3 sequence: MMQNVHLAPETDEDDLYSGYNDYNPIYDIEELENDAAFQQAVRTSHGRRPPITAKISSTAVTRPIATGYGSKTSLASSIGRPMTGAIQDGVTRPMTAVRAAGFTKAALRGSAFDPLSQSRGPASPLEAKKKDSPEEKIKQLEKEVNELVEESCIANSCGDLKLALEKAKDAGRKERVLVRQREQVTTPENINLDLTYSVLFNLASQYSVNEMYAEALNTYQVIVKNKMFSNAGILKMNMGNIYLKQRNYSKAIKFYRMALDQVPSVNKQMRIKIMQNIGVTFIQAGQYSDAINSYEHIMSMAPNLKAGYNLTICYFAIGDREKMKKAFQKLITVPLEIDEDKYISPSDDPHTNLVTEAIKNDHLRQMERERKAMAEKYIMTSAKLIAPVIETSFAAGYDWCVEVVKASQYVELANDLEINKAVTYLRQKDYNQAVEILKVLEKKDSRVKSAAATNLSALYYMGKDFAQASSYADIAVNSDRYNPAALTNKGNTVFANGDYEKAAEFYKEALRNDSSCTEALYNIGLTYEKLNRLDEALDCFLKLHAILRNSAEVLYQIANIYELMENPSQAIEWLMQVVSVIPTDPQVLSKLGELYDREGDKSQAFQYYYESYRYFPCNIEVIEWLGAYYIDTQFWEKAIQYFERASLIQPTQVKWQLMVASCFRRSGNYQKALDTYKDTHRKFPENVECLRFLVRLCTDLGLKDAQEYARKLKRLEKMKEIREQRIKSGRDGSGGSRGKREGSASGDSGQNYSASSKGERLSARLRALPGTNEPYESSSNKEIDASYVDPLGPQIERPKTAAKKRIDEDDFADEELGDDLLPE

For experiment [1], the target named is T4, EGFP-IFT38(WT) (human) (UniProt Q96AJ1).
T4 sequence: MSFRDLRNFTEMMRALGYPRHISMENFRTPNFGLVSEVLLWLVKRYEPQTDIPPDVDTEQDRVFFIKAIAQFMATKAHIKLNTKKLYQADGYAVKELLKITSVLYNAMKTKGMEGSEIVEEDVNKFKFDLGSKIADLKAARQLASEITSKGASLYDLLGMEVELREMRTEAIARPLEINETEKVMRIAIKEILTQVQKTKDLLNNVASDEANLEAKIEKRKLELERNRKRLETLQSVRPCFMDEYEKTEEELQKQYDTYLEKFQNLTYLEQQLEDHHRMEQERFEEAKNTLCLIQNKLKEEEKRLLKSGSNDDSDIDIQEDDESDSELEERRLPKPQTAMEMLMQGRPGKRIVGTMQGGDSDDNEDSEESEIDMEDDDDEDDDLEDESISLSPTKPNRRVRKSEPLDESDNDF

Experiment [2] concerns the target EGFP-fused components of the IFT-B-connecting tetramer, IFT38/IFT52/IFT57/IFT88 (co-expressed) (UniProt Q96AJ1).
Experiment [3] deals with T4, EGFP-IFT38(WT) (human). This is another data set of the same source.
The next experiment concerns the target T5, EGFP-IFT38(ΔN) (human) (UniProt Q96AJ1).
T5 sequence: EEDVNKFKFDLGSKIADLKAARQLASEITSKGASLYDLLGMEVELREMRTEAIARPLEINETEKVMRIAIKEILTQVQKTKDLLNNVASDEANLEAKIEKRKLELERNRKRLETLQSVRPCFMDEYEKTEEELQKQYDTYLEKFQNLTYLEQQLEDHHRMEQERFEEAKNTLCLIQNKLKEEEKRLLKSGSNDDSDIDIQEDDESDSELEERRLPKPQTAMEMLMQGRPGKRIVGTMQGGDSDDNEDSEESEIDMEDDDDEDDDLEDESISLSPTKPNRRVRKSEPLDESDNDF

The target in the next experiment is T6, EGFP-IFT38(ΔC) (human) (UniProt Q96AJ1).
T6 sequence: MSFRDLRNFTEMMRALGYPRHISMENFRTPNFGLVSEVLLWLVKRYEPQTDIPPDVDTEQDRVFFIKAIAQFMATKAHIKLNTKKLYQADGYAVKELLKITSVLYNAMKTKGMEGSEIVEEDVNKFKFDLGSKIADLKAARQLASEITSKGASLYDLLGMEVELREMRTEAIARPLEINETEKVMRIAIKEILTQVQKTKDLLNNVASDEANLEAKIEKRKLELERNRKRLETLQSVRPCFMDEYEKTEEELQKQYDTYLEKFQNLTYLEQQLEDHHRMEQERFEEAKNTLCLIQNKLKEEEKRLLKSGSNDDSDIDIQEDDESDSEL

“all the BBSome subunits plus ARL6 fused to tRFP (co-expressed) (from UniProt Q8NFJ9 1-593; Q9BXC9 1-721; Q96RK4 1-519; Q8N3I7 1-341; Q8IWZ6 1-715; Q8TAM2 1-541; Q3SYG4 1-887; A8MTZ0 1-92; Q9H0F7 1-186) (complex)”: the binding entry with EGFP-IFT52 was “no binding”; with EGFP-IFT57, “no binding”; with EGFP-IFT88 it was “no binding”; in the experiment with EGFP-IFT38(WT) (human) [1], “binds”; in experiment [2], “binds weakly”.

B1: mChe-fused IFT80 (protein, UniProt Q9P2H3 1-777)
chain: MRLKISLLKEPKHQELVSCVGWTTAEELYSCSDDHQIVKWNLLTSETTQIVKLPDDIYPIDFHWFPKSLGVKKQTQAESFVLTSSDGKFHLISKLGRVEKSVEAHCGAVLAGRWNYEGTALVTVGEDGQIKIWSKTGMLRSTLAQQGTPVYSVAWGPDSEKVLYTAGKQLIIKPLQPNAKVLQWKAHDGIILKVDWNSVNDLILSAGEDCKYKVWDSYGRPLYNSQPHEHPITSVAWAPDGELFAVGSFHTLRLCDKTGWSYALEKPNTGSIFNIAWSIDGTQIAGACGNGHVVFAHVVEQHWEWKNFQVTLTKRRAMQVRNVLNDAVDLLEFRDRVIKASLNYAHLVVSTSLQCYVFSTKNWNTPIIFDLKEGTVSLILQAERHFLLVDGSSIYLYSYEGRFISSPKFPGMRTDILNAQTVSLSNDTIAIRDKADEKIIFLFEASTGKPLGDGKFLSHKNEILEIALDQKGLTNDRKIAFIDKNRDLCITSVKRFGKEEQIIKLGTMVHTLAWNDTCNILCGLQDTRFIVWYYPNTVYVDRDILPKTLYERDASEFSKNPHIVSFVGNQVTIRRADGSLVHISITPYPAILHEYVSSSKWEDAVRLCRFVKEQTMWACLAAMAVANRDMTTAEIAYAAIGEIDKVQYINSIKNLPSKESKMAHILLFSGNIQEAEIVLLQAGLVYQAIQININLYNWERALELAVKYKTHVDTVLAYRQKFLETFGKQETNKRYLHYAEGLQIDWEKIKAKIEMEITKEREQSSSSQSSKSIGLKP
Regarding B1, the binding result is reported as “binds” with EGFP-IFT38(WT) (human) [3], “no binding” in the experiment with EGFP-IFT38(ΔN) (human) and “binds” with EGFP-IFT38(ΔC) (human).
